In all, about 150,000 compounds went through this assay and about 540 (0.36%) showed an effect of 50% or more. This is one part of the list.
These compounds were tested on Plasmodium falciparum (assay: Primary screen in NF54 nanoGlo assay, in single point, at 2uM, 72h; a lower Z score goes with more inhibition). Conditions: timepoint 72 hour.
Assay type: functional, Erythrocyte

| Structure (SMILES) | % Inhibition [%] | Z score |
| --- | --- | --- |
| COC(=O)N1CCC[C@H](NC(=O)C(=O)Nc2ccccc2)C1 | -14 | 1.75 |
| Fc1ccc(N2CCN(c3nc4c(c(C(F)(F)F)n3)CCCCC4)CC2)cc1 | 24 | -2.37 |
| O[C@H](COc1ccccc1)Cn1cc(-c2ccccc2F)cn1 | -6 | 0.81 |
| C[C@H]1CN(C)c2ccccc2CN1C(=O)NCc1nc2ccccc2n1C1CC1 | -11 | 1.82 |
| O=C(Nc1ccc2c(c1)OCCCO2)c1ccc(S(=O)(=O)N2CCCC2)cc1 | -21 | 3.31 |
| O=C(C1CNCCO1)N1CCCC1c1ccc(Cl)cc1 (stereo not given) | 4 | -0.55 |
| O=C(Cc1ccccc1)N(Cc1cccnc1)C1(C(=O)Nc2ccc(N3CCOCC3)cc2)CCC2Cc3ccccc3CC2C1 (stereo not given) | 20 | -2.49 |
| COc1ccc(NS(=O)(=O)c2ccc(NC(=O)c3cc(C)n(-c4cccc(C)c4)c3C)cc2)cc1 | 22 | -2.84 |
| CC(c1nccs1)N(C)C1CCC(=O)N(Cc2cc3c(cc2Cl)OCO3)CC1 (stereo not given) | -10 | 1.3 |
| COc1cc(-n2cnnn2)c(Cl)cc1C(=O)N1CCOCC1 | 0 | 0.08 |
| Cc1ccc(Cn2c(C)c(N3CCOCC3)c(C)c2C(=O)N2CCN(c3ccccc3F)CC2)cc1 | -13 | 1.25 |
| COc1ccc(CCNC(=O)CN2C[C@H]3CC[C@H]2C3)cc1 | 2 | -0.2 |
| Cn1cccc(C(=O)NCC2CCN(c3nc4ccccc4o3)CC2)c1=O | -9 | 1.33 |
| Cc1cc(C(=O)NCCN2CCOCC2)nc(C)n1 | -14 | 2 |
| COC(=O)C1(CNC(=O)c2cscn2)CCCCC1 | -6 | 0.93 |
| C[C@H]1CC(=O)Nc2ccccc2N1C(=O)CNc1ccccc1CN1CCC(CO)CC1 | -6 | 0.89 |
| Cn1nc2cccc(NC(=O)N3CCS(=O)(=O)CC3)c2n1 | -1 | 0.16 |
| CC1CC1c1nc(C#N)c(N2CCOCC2)o1 (stereo not given) | -6 | 1.07 |
| CN(C[C@H]1CCCN1Cc1ccncc1)C(=O)OC(C)(C)C | -13 | 1.3 |
| O=S(=O)(C1COC1)N1CCO[C@H](c2cccs2)C1 | -12 | 1.57 |
| COc1ccccc1C(=O)N1CCCC[C@H]1c1nnc(-c2ccncc2)[nH]1 | -7 | 1.32 |
| O=S(=O)(C1CC1)N1CC[C@H](O)C(F)(F)C1 | -5 | 0.85 |
| Cc1cc(-n2cc3c(c2-c2ccc(F)cc2)c(=O)n(C)c(=O)n3C)no1 | 33 | -3.79 |
| COc1cccc(CNC(=O)c2cnn3c4c(cnc23)C[C@@H](C)CC4)c1 | 0 | 0.03 |
| COCCC(=O)NC[C@@]12CCCC=C1NC(=O)CC2 | -9 | 1.23 |
| Cc1ccc(-c2cn[nH]c2[C@H]2CCCN(C(=O)c3snnc3C)C2)cc1 | 11 | -1.54 |
| O=C(c1ccc(-c2ccc3occc3c2)cc1)N1C[C@H](CO)[C@@H](CO)C1 | -9 | 1.19 |
| CCn1nncc1C(=O)NC1CCC(F)C1 (stereo not given) | -4 | 0.59 |

| Structure (SMILES) | % Inhibition [%] | Z score |
| --- | --- | --- |
| CN(CCc1ccccc1F)Cc1nc(CS(C)(=O)=O)no1 | -8 | 0.72 |
| Cc1nc(CCNC(=O)[C@H]2CC(=O)N(c3ccccc3Br)C2)cs1 | -5 | 0.84 |
| CC1COCCN1C(=O)C1C2CCCC21 (stereo not given) | 28 | -3.14 |
| CCn1c(=O)c2sc(N3CCCC3)nc2n(CC(=O)Nc2cccc(OC)c2)c1=O | -19 | 1.64 |
| CCC(C)(C)NC(=O)Cn1ncc(N(C)C)cc1=O | -1 | 0.11 |
| CC(C)[C@H](O)C1(CNCc2c[nH]nc2-c2cccs2)CC1 | 4 | -0.62 |
| CC(C)c1scnc1C(=O)N[C@@H](CO)C1CCCC1 | 11 | -1.09 |
| CC(=O)NCC(C)(C)Cc1cccc(Cl)c1 | 32 | -3.63 |
| CCC(CC)NC(=O)[C@@H]1CCCCC(=O)N1Cc1cccc(OC)c1 | 5 | -0.59 |
| CC(C)(C)C(=O)NCCCN1CCOCC1 | 2 | -0.29 |
| CC[C@H](OC1CCCCC1)c1nc(-c2cc(O)ncn2)no1 | 0 | 0.03 |
| CN1C(=O)c2ccc(NC(=O)Nc3ccccc3)cc2C1=O | -12 | 1.4 |
| Cc1cc(C(=O)N2CCOC[C@H](Oc3ccc(C(F)(F)F)cc3)C2)c(C)o1 | 11 | -1.24 |
| COc1cccc(C(=O)N2CCc3c(c(-c4nncn4C(C)C)nn3C)C2)c1 | 7 | -0.92 |
| CO[C@@H](C)CCC(=O)Nc1ccnc(C(C)(C)C)n1 | -10 | 1.39 |
| CCCCCN/C(=N\C(=O)c1ccccc1Cl)OCC(C)C | 3 | -0.48 |
| O=S(=O)(Cc1ccccc1F)N1CCCc2ccccc21 | -8 | 1.59 |
| Cc1nc(NC(=O)[C@H](C)NCc2nnc3n2CCCC3)sc1C | -18 | 2.74 |
| Cc1noc(C)c1S(=O)(=O)NCc1ccsc1 | -9 | 1.18 |
| Cc1cc(-c2c(-c3ccccc3)ncn2C[C@@H](c2ccc(C)o2)N(C)C)[nH]n1 | -3 | 0.35 |
| Cc1nc(NC(=O)N2CCOC(C)(C)[C@@H]2C)ccc1Br | 12 | -2.22 |
| COc1ccncc1CNC(=O)N1Cc2ccccc2OC[C@@H]1C | 27 | -3.01 |
| O=C1C(=O)N(CCS(=O)(=O)c2ccccc2)c2ccccc21 | -6 | 0.81 |
| CCC(=O)N(C)c1ccccc1-c1nc(-c2ccc(Br)o2)no1 | 10 | -1.27 |
| CC(CNC1CCCCC1S(C)(=O)=O)c1ccsc1 (stereo not given) | -3 | 0.42 |
| CCOc1cc(N[C@H]2CCn3ccnc32)ccc1OC | -12 | 2.28 |
| CCOc1ccc([C@H](C)NC(=O)CCn2cnc3c(cnn3C)c2=O)cc1OCC | -16 | 1.63 |

From ChEMBL document CHEMBL4888484, “Replenishing the malaria drug discovery pipeline: Screening and hit evaluation of the MMV Hit Generation Library 1 (HGL1) against asexual blood stage Plasmodium falciparum ,using a nano luciferase reporter read-out” (2022)
